About 400 (5.1%) of roughly 7,900 compounds showed an effect of 50% or more. This is one part of the list.

Chain of Parkinson's disease protein 7 (PARK7/DJ1) (Q99497 whole entry, looked up, the tested form may be a part): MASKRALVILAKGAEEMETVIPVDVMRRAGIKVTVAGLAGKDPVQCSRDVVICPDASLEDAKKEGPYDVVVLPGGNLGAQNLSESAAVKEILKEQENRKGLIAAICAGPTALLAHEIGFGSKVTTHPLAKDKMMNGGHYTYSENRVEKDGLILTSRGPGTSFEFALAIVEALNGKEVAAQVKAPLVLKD

The target of this test is Parkinson's disease protein 7 (PARK7/DJ1) (human, UniProt Q99497). Briefly: primary screen, percent inhibition; read as competition with a fluorescent probe by fluorescence polarization; higher = more effect of the substance. The conditions noted are these: 100 µM. In short, it runs like this:
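Covalent fragments at 100 μM final were incubated 2 h with 0.2 μM PARK7, then 20 nM probe JYQ-107 added for a further 2 h. Fluorescence polarization read at 480/520 nm; relative FP loss versus reference controls gave remaining enzyme activity.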
For `CN(C)c1cccc(C2CCCN2C2CCOC2=O)c1` (stereo not shown), the Inhibition % turned out to be 3.13%.

Regarding `C=CC(=O)Nc1ccc2c(C)n(C)nc2c1`, the Inhibition % worked out at 22.4%.

Consider `C=CC(=O)N1CC2C3COCC3C2C1` (stereo not shown), for which the Inhibition % was 10.7%.

In the case of `O=C(CCl)NC(=O)Nc1ccc2c(c1)OCCCO2`, the Inhibition % was determined as 7.15%.

Take `C=C(C)Cn1c(-c2ccccn2)noc1=O`: the Inhibition % is on record as 5.56%.

For the compound `O=c1cc(CS)nc2ccccn12`, the Inhibition % is reported as 17.8%.

As to `C=CC(=O)NCc1cc2n(n1)CCCC2`, the Inhibition % turned out to be 10.1%.

As for `N#CC(=Cc1cccnc1)c1ccccn1`, the Inhibition % is listed as 38.4%.

Take `C=CC(=O)N1CCSC(C)(C)CC1`: the Inhibition % is listed as 11.7%.

Turning to `O=C1CC(c2ccccc2)S(=O)(=O)N1` (stereo not shown), the Inhibition % is 5.4%.

For the compound `O=C(CN1CCSC1=O)Nc1ccc(Cl)c(Cl)c1`, the Inhibition % stood at 0.617%.

With `C=CC(=O)N1CC(=O)N(C(C)C)C(C)(C)C1`, the Inhibition % was determined as 10.9%.

Regarding `CC1(C)OB(c2csc(C(F)(F)F)n2)OC1(C)C`, the Inhibition % came to 5.39%.

On to `C[C@@H]1C[C@@H](OS(C)(=O)=O)CCO1` (racemic), for which the Inhibition % was found to be 18.4%.

Consider `CCSc1cccnc1C#N`, for which the Inhibition % is on record as 7.64%.

For the compound `CC1CC(SC(C)C(C)O)C(=O)O1` (stereo not shown), the Inhibition % worked out at 3.91%.

Consider `Cc1cccc(OCC(=O)Nc2ccc(S(=O)(=O)F)cc2)c1`, for which the Inhibition % was 9.17%.

As to `CC1CN(C(=O)C=Cc2nc3ccccc3o2)CCO1` (stereo not shown), the Inhibition % turned out to be 16.4%.

On to `CCOC(=O)C1CCN(C(=O)CCl)CC1`, for which the Inhibition % stood at 19.7%.

For `O=C1OCCC1Nc1ccc2c(c1)CCCO2` (stereo not shown), the Inhibition % is 28.6%.

On to `COc1cc(C=C(C#N)C(N)=S)ccc1O`, for which the Inhibition % was found to be 1.24%.

As to `O=S(=O)(F)c1ccc(-c2cn(CC3CC(F)(F)C3)nn2)cc1`, the Inhibition % came out at 2.81%.

In the case of `C=CC(=O)N1CCCC2(C1)OCc1ccccc12` (stereo not shown), the Inhibition % turned out to be 6.47%.

For `C=CC(=O)NCC(O)c1cc2ccccc2s1` (stereo not shown), the Inhibition % was 7.61%.

`O=C(O)Cn1nc(-c2cccs2)oc1=O`: the Inhibition % came to 2.32%.

On to `C=CC(=O)NC(C)c1c(C)noc1C` (stereo not shown), for which the Inhibition % is 11.1%.

On to `O=C(CCl)N1CCN(S(=O)(=O)Cc2ccccc2)CC1`, for which the Inhibition % came to 13.1%.

In the case of `Nc1cccnc1S(=O)(=O)F`, the Inhibition % stood at 81.4%.

Consider `CSC1CCCC1N(C)CCN1C(=O)CCC1=O` (stereo not shown), for which the Inhibition % worked out at 11%.

With `N#CC(=Cc1ccc(N)nc1)C(=O)NC1CCCC1`, the Inhibition % is listed as -3.77%.

Regarding `O=C1OCCC1Sc1ncc(-c2ccc(F)cc2)o1` (stereo not shown), the Inhibition % amounted to 40.5%.

Turning to `C=CC(=O)NCC1CCC(C(N)=O)CC1` (stereo not shown), the Inhibition % came out at 11.8%.

With `Cc1ccnc(S)c1`, the Inhibition % was determined as 8.62%.

With `C=CC(=O)N1CCN(c2cccs2)CC1`, the Inhibition % amounted to 5.52%.

With `O=C(CCl)NC1c2ccccc2-c2ccccc21`, the Inhibition % was found to be 4.21%.

Take `C=CC(=O)NC1CCC(N2CCCCC2)C1` (stereo not shown): the Inhibition % turned out to be 9.75%.

Regarding `CCN(CC)S(=O)(=O)c1cccc(NC(=O)CCl)c1`, the Inhibition % is listed as 22.5%.

`O=C1NC(c2ccccc2)C12CCCC2` (stereo not shown): the Inhibition % is 3.32%.

For `Cc1nc(C#N)[nH]c1C`, the Inhibition % was 3.54%.

Take `COc1ccc(CCNC(=O)n2ccnc2)cc1OC`: the Inhibition % stood at 10.3%.

Regarding `C=CC(=O)N1CC(C)(C)OC2(CCCC2)C1`, the Inhibition % is 3.79%.

`O=S(=O)(F)CCSc1nnc2sc3ccccc3n12`: the Inhibition % amounted to 7.67%.

As to `CC1(C)OB(c2cnc3c(c2)OCO3)OC1(C)C`, the Inhibition % is on record as 10.4%.

For the compound `CCc1cc2c(=O)n(CCS(=O)(=O)F)cnc2s1`, the Inhibition % is given as 9.17%.

On to `Cc1cnc(CCNS(=O)(=O)C=Cc2ccccc2)s1`, for which the Inhibition % stood at 7.5%.

Consider `C=CC(=O)NCC1CC2(CCOCC2)CO1` (stereo not shown), for which the Inhibition % came to 5.16%.

In the case of `C#CC(=O)N1CCC(C)(C(=O)O)CC1`, the Inhibition % is reported as 6.42%.

Take `Cc1cc2ncn(CC3CO3)c2cc1C` (stereo not shown): the Inhibition % is given as 20.8%.

Turning to `N#Cc1ncn(CCC(=O)Nc2cc(Cl)ccc2Cl)n1`, the Inhibition % amounted to 1.82%.

`COc1ccccc1C1=NOC(=O)C1`: the Inhibition % stood at 14%.

Take `C=CCNC(=O)C(C#N)=Cc1c(F)cccc1F`: the Inhibition % is on record as 27.7%.

Regarding `CC1(C)OB(c2ccc(C(F)F)c(F)c2)OC1(C)C`, the Inhibition % was -1.1%.

With `CCOc1ccc(S(=O)(=O)n2ccnc2C)cc1C`, the Inhibition % is given as 12.5%.

Consider `C=CC(=O)N1CCOC(C2CC2)(C2CC2)C1`, for which the Inhibition % is 2.67%.

For the compound `O=C(NC1CC1)c1cc(S)nc2ccccc12`, the Inhibition % was found to be 4.88%.

As to `Fc1ccc(F)c(C2CO2)c1` (stereo not shown), the Inhibition % is 9.22%.

For the compound `COC[C@@H]1C[C@@H](OC)CN1Cc1cc(C#N)n(C)c1`, the Inhibition % is recorded as 15.6%.

Regarding `Clc1ccccc1C1CO1` (stereo not shown), the Inhibition % is 5.56%.

`C=CC(=O)NCCCn1nc(C)cc1C`: the Inhibition % is -2.87%.

Regarding `Cc1ccc2ccccc2c1B(O)O`, the Inhibition % is recorded as 0.986%.

Turning to `O=C(Cn1c(-c2ccccc2)noc1=O)N1CCOCC1`, the Inhibition % turned out to be 5.92%.

For `O=C(O)C=CS(=O)(=O)c1ccccc1`, the Inhibition % is recorded as 6.07%.

Turning to `C=CC(=O)N1CCCC(c2ccccc2)C1` (stereo not shown), the Inhibition % came to 4.78%.

`NC(=O)c1ccc(OCCCl)cc1`: the Inhibition % is -3.9%.

Turning to `CC1(C)OB(c2ccc3c(c2)OCC3)OC1(C)C`, the Inhibition % is on record as 17.4%.

`O=C(Nc1ccncc1)N1CCC(C2OCCO2)CC1`: the Inhibition % is 9.17%.

For `O=C(CCl)NC(c1ccccc1)c1ccc(Cl)cc1` (stereo not shown), the Inhibition % came out at 9.28%.

For the compound `COc1ccc(OC)c(NC(=O)CCl)c1`, the Inhibition % worked out at 13.5%.

In the case of `COC1(Cn2c(S)nc3ccccc3c2=O)CCOCC1`, the Inhibition % is on record as -1.4%.

As for `N#Cc1ncn(CC(=O)N2CCCCC2)n1`, the Inhibition % stood at 7.22%.

Consider `C=CC(=O)N1CCN(C(=O)c2cnccn2)CC1`, for which the Inhibition % is reported as 1.2%.

Take `N#Cc1ccnc2ccnn12`: the Inhibition % came to 4.63%.

On to `Cc1occc1C(=O)N1CCN(C2CC(C)OC2=O)CC1` (stereo not shown), for which the Inhibition % is 17.2%.

On to `O=C(Cc1ccccc1Cl)N1CCCCC1C1OCCO1` (stereo not shown), for which the Inhibition % is recorded as 14.3%.

Take `C=CC(=O)NC(C)Cn1cnnc1` (stereo not shown): the Inhibition % was 13.5%.

For `N#Cc1c(NC(=O)CCl)sc2c1CCCCC2`, the Inhibition % was 4.48%.

With `N#Cc1ncn(Cc2c(F)cccc2Cl)n1`, the Inhibition % is recorded as 0.988%.

For the compound `Cc1nc(S)c(C#N)cc1C(=O)Nc1ccccc1`, the Inhibition % turned out to be 10.1%.

Take `C=CC(=O)NCc1nc(-c2cccc(C#N)c2)c[nH]1`: the Inhibition % is 1.96%.

As for `COc1ccc(S(=O)(=O)n2ccnc2)cc1C(C)(C)C`, the Inhibition % is recorded as 5.47%.

As for `CC1(C)OB(c2cc3ccccc3o2)OC1(C)C`, the Inhibition % was 1.38%.

With `O=C(O)c1cnn(CCCl)c1`, the Inhibition % is recorded as 16%.

As to `C=CC(=O)N1CCC2(CCCC2)C1`, the Inhibition % amounted to 2.45%.

For `CC1(C)OB(c2cnn(C(F)F)c2)OC1(C)C`, the Inhibition % came to 7.69%.

For the compound `CC1CCc2ccccc2N1C(=O)Cn1cnc(C#N)n1` (stereo not shown), the Inhibition % is given as 8.8%.

Take `C=CC(=O)N1CCc2ccccc2C(C)C1` (stereo not shown): the Inhibition % is on record as 4.65%.

As for `Cc1ccc(CN(C)S(=O)(=O)C=Cc2ccccc2)o1`, the Inhibition % was 10.9%.

`CC1CC1C(=O)N1CCOC(CS(=O)(=O)F)C1` (stereo not shown): the Inhibition % was 11.8%.

Take `C=CC(=O)N(C)Cc1ccccn1`: the Inhibition % was found to be 28.5%.

On to `N#Cc1ccc(S(=O)(=O)Nc2c(F)cccc2Cl)cn1`, for which the Inhibition % is given as 29.9%.

As for `Cc1nn(C)c(Cl)c1C=CC(=O)N1CCCCC1CN` (stereo not shown), the Inhibition % is recorded as 15.6%.

On to `COC(=O)c1ccccc1S(=O)(=O)F`, for which the Inhibition % amounted to 52.5%.

Consider `O=C(CCl)Nc1cc(Cl)ccc1[N+](=O)[O-]`, for which the Inhibition % was 1%.

Turning to `Cc1nn(S(=O)(=O)c2ccc(Cl)cc2)c(C)c1Cl`, the Inhibition % turned out to be 6.1%.

Turning to `Cc1nnnn1C(=Cc1ccccc1)C(=O)N(C)C`, the Inhibition % amounted to 15%.

For `CCC(C)c1ccc(-c2csc(NC(=O)CCl)n2)cc1` (stereo not shown), the Inhibition % is recorded as 8.03%.

For the compound `C=CC(=O)NC1C(=O)NCC1(C)C` (stereo not shown), the Inhibition % worked out at 9.19%.

For `COC(F)(F)C(F)(F)c1ccc(B2OC(C)(C)C(C)(C)O2)cc1`, the Inhibition % is given as 6.09%.

Take `O=S(=O)(C=Cc1ccccc1)N1CCCn2ncnc21`: the Inhibition % was found to be 6.48%.

Turning to `C=CC(=O)Nc1cc(OC)c(Cl)cc1OC`, the Inhibition % was found to be 16%.

`C=CC(=O)NC(c1ccc(Cl)cc1)C1CN(C)CCO1` (stereo not shown): the Inhibition % is recorded as 6.77%.

Regarding `C=CCNC(=O)C(C#N)=Cc1cccn1C`, the Inhibition % is listed as 17%.

Turning to `CC(C)Cn1c(N)c(C(=O)CCl)c(=O)n(C)c1=O`, the Inhibition % was determined as 6.06%.

As for `C=CC(=O)N1CCCC(c2nc(C(F)(F)F)cn2C)C1` (stereo not shown), the Inhibition % was 7.43%.

Turning to `N#Cc1nc(N2CCCC(N3CCNC3=O)C2)ccc1Cl` (stereo not shown), the Inhibition % turned out to be 1.45%.

For `CC(C)c1ccccc1NC(=O)CCl`, the Inhibition % is reported as 4.33%.

With `Cc1ccc(S(=O)(=O)F)cc1C(=O)O`, the Inhibition % came to 87.9%.

Turning to `ClCC1CN(c2ccccc2)CCO1` (stereo not shown), the Inhibition % is 6.62%.

`CCCOc1cc(C)c(C)cc1S(=O)(=O)n1ccnc1C`: the Inhibition % was found to be 8.09%.

As for `Cl.NC1CN(c2ccc(F)cc2)C1=O` (stereo not shown), the Inhibition % is reported as 3.13%.

With `N#Cc1ncccc1S(=O)(=O)N1CCC(C(F)(F)F)CC1`, the Inhibition % is reported as 5.48%.

Consider `CCOc1ccc(S(=O)(=O)n2ccnc2)c(C)c1C`, for which the Inhibition % came to 2.03%.

Take `C=CC(=O)N1CCS(=O)(=O)[C@H](C)C1`: the Inhibition % is listed as 9.29%.

`COc1cc(SC#N)ccc1O`: the Inhibition % is given as 15.4%.

`CCS(=O)(=O)CCN(C#N)c1ccc(F)c(Cl)c1`: the Inhibition % was determined as 4.71%.

Turning to `O=C(CCl)NN(c1ccccc1)c1ccccc1`, the Inhibition % turned out to be 10.3%.

Turning to `COc1nsc(OC)c1B1OC(C)(C)C(C)(C)O1`, the Inhibition % came out at 25.3%.

On to `O=C(C1CCOCC1)N1CCCC(CS(=O)(=O)F)C1` (stereo not shown), for which the Inhibition % worked out at 55.9%.

In the case of `Cc1sc2ncn(CCS(=O)(=O)F)c(=O)c2c1C`, the Inhibition % is 6.46%.

As for `Cc1nn(S(=O)(=O)c2ccc(Cl)cc2)c(C)c1C`, the Inhibition % worked out at 10%.

Consider `O=C(NCC1CCC(O)C1)c1cccc(B(O)O)c1` (stereo not shown), for which the Inhibition % was 3.39%.

Consider `CCC(C)c1ccccc1NC(=O)CCl` (stereo not shown), for which the Inhibition % turned out to be 16.8%.

For the compound `Cn1cc(COc2cccc(B3OC(C)(C)C(C)(C)O3)c2)cn1`, the Inhibition % amounted to 1.93%.

Take `CCN(CC)S(=O)(=O)c1cc(NC(=O)CCl)ccc1C`: the Inhibition % came out at 7.16%.

These data come from publication PMC9574860, “Chemical Toolkit for PARK7: Potent, Selective, and High-Throughput” (Journal of Medicinal Chemistry, 2022).
